# The other results are listed elsewhere or left out. The full chains were built here from the parent and the listed change. Inactive controls read about 0.05.
# B1: TEV protease; numbered along this chain (parent)
# chain: MGESLFKGPRDYNPISSSICHLTNESDGHTTSLYGIGFGPFIITNKHLFRRNNGTLVVQSLHGVFKVKDTTTLQQHLVDGRDMIIIRMPKDFPPFPQKLKFREPQREERICLVTTNFQTKSMSSMVSDTSCTFPSGDGIFWKHWIQTKDGQCGSPLVSTRDGFIVGIHSASNFTNTNNYFTSVPKNFMELLTNQEAQQWVSGWRLNADSVLWGGHKVFMVKPEEPFQPVKEATQL
# Variants of: B1
# Assay: raw area under fraction-flipped curve 0-4 h after induction (AUC4h, not background-subtracted), DNA-recorder readout of cleavage of the substrate (dimensionless); higher = more cleavage of the substrate by the protease variant
# Details: temperature: 34 °C; time window: 0-4 h after rhamnose induction
# 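Note: Bxb1 expression induced with 0.2% (w/v) L-rhamnose at OD600 near 0.5, cultures sampled hourly, flipped fraction per protease–substrate barcode pair counted by paired-end Illumina sequencing.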
Variant,area with substrate ENLYDQS,area with substrate ENLYGQS,area with substrate ENLYHQS,area with substrate ENLYKQS,area with substrate ENLYNQS,area with substrate ENLYQQS,area with substrate ENLYRQS,area with substrate ENLYSQS,area with substrate ENLYYQS,area with substrate ENLYEQS,area with substrate ENLYIQS,area with substrate ENLYMQS,area with substrate ENLYPQS,area with substrate ENLYTQS,area with substrate ENLYVQS,area with substrate ENLYWQS,area with substrate ENLYLQS
A196P,0.065,0.0648,0.0756,0.0688,0.0543,0.0568,0.059,0.102,0.0981,,,,,,,,
N206W,0.0722,0.0603,0.0547,0.0462,0.055,0.0523,0.0758,0.06,,0.0649,0.0844,0.0701,0.0661,0.0907,0.0604,0.0665,
D69A,,0.0412,,0.0564,0.0612,,,,,0.0661,0.0667,0.0633,0.0691,,,,
G35Y,,0.0575,,,0.0416,,,,,0.051,,,,,0.0434,,
F6C,,,,,,0.0602,,,,0.0737,0.0908,,0.0359,,,,0.0777
F6L,,,0.052,,,,0.0552,0.0534,0.0645,0.0599,,0.0656,,0.0759,,,0.0594
L5I,,,,,0.0769,,,,,0.0953,,,0.069,,,,0.0975
T233A,0.0607,0.0582,0.0749,,,0.0554,0.0508,,,,0.111,,0.065,0.071,,0.0807,
T233V,0.0645,0.0637,0.105,,0.0716,0.0562,,0.0844,,,0.0869,,,,0.088,,
K7C,,,0.0769,0.0562,0.0843,0.067,0.0603,,,0.0625,0.0848,0.0814,,,,,0.0795
K7F,,0.062,0.0682,0.0443,,,,0.0759,0.0704,0.0869,,0.0778,,,,,
V157T,,0.0666,0.0643,0.0552,,,0.0599,,,0.0651,,,0.0501,,0.12,0.0732,
Q146G,,,0.062,,0.0598,0.0694,0.0792,0.0512,,0.0837,0.138,0.0986,0.08,,0.121,0.0899,
W141L,,,0.0751,0.0516,0.0614,,,,0.0492,0.0409,,0.0368,0.0469,,0.053,,0.0546
W203F,0.0707,0.0789,,,,,,0.078,,0.0734,,,0.0793,,,0.0655,
T30M,,,0.0687,0.0496,0.0532,,,0.099,,0.0647,,,0.0394,0.0709,,0.0985,
I145A,,,0.0608,0.081,0.0641,0.0603,0.0609,0.0876,0.0809,0.0642,,,,,0.19,,
I145S,,0.0497,0.0741,0.03,0.0694,0.0607,0.0547,,,0.0745,0.13,0.148,0.102,,0.196,0.0944,
V229N,0.0689,,0.0753,0.063,0.0719,0.0586,0.0727,,,0.0907,0.145,,0.0623,0.109,0.116,0.0882,0.0734

Variant,area with substrate ENLYDQS,area with substrate ENLYGQS,area with substrate ENLYHQS,area with substrate ENLYKQS,area with substrate ENLYNQS,area with substrate ENLYQQS,area with substrate ENLYRQS,area with substrate ENLYSQS,area with substrate ENLYYQS,area with substrate ENLYEQS,area with substrate ENLYIQS,area with substrate ENLYMQS,area with substrate ENLYPQS,area with substrate ENLYTQS,area with substrate ENLYVQS,area with substrate ENLYWQS,area with substrate ENLYLQS
L235W,0.0354,0.0678,0.0715,0.0841,0.073,,0.0517,0.0607,,0.0883,,,0.0818,,0.106,,
L235R,0.0641,,,,,,,,,,0.146,,0.0899,,,,
L235D,0.0704,,,,0.046,,,,,,0.14,,,,,0.0976,
S209M,0.0661,0.0797,0.0619,,,,0.0502,0.0719,,0.0676,0.127,0.0803,0.0686,,0.0037,,
L156P,,0.0499,0.0527,0.0553,0.058,0.0614,0.0507,0.0571,,0.0587,0.0527,0.0583,,0.0765,0.0539,0.0483,
H215Y,0.0625,0.0585,,,0.0648,0.0612,,,,0.0721,0.0679,0.0717,,0.0506,,0.0658,
G153D,,0.0524,0.0335,0.0509,0.0303,,0.0536,,,0.0516,,0.073,0.0618,,,,
G153A,,0.0485,,,0.0519,,0.0728,,,0.0472,0.0655,,,,,0.0412,0.0409
T70C,,,0.0769,,,0.0614,,,0.0946,0.0688,0.1,,0.0796,,,0.0704,
V220H,0.0605,0.0654,0.0597,0.0639,0.0713,0.0825,,0.0668,0.0549,0.071,,0.0805,0.0813,,0.0494,0.0861,0.103
Y12T,,0.0653,0.0651,,,0.0705,0.0587,0.0893,,0.0821,0.12,0.0888,,,,,
Q74L,,0.0747,,0.0634,0.057,,0.0571,0.0708,0.072,0.0622,0.119,,,,,,0.0852
I85E,,,0.0414,0.0547,,0.0412,0.0416,,0.0452,0.0451,0.0585,0.0555,0.0507,,0.0478,,
E231Y,0.0564,,0.0689,,0.0856,,0.0683,,0.0536,0.066,,0.0765,0.0613,0.0588,,0.0567,0.0781
E231K,0.0671,0.0648,0.0746,0.114,,,,0.0972,,,,,0.0729,,0.11,0.0726,
P225Y,0.0506,0.0749,0.0632,0.0583,0.064,0.0842,,0.0625,,0.0743,0.114,,,0.0637,,0.0844,
T72M,,0.0563,0.0715,0.0223,,0.0415,,,,0.072,,0.0479,0.0978,,,,0.0886
I84M,,0.0606,0.0883,0.0529,0.0559,,0.0512,,,0.0607,,0.0742,,,0.108,,
E3K,,,0.079,,0.065,,0.0575,0.0872,0.0582,0.0539,0.122,0.094,0.0745,,,0.107,
